This is one part of the list.
Test system: S. aureus RN4220
Assay: growth inhibition call (relative growth <= 0.2)
Conditions: 50 µM

Growth inhibition call, inactive:
CN1CCc2nc(C(=O)NC3CC(C(=O)N(C)C)CCC3NC(=O)C(=O)Nc3ccc(Cl)cn3)sc2C1.Cc1ccc(S(=O)(=O)O)cc1.O (configuration not stated)
COc1ccc(S(=O)(=O)Nc2cccc3c2O[C@@H](CN(C)Cc2ccc(-c4ccccc4)cc2)[C@H](C)CN([C@H](C)CO)C3=O)cc1
C[C@H](CO)N1C[C@H](C)[C@@H](CN(C)Cc2ccc(C(F)(F)F)cc2)OCCCC[C@H](C)Oc2ccc(NC(=O)c3ccccc3)cc2C1=O
C[C@H]1CN([C@@H](C)CO)C(=O)c2cc(NC(=O)Nc3ccc(C(F)(F)F)cc3)ccc2O[C@@H]1CN(C)Cc1ccncc1
C[C@@H]1CN([C@H](C)CO)C(=O)Cc2cc(NC(=O)C3CC3)ccc2O[C@@H]1CN(C)S(=O)(=O)c1cn(C)cn1
C#CCN1[C@H](/C=C/C2CC2)[C@H](CCn2cc(-c3ccc(C(=O)NO)s3)nn2)OC(=O)[C@@H]1Cc1ccccc1
C[C@H](CO)N1C[C@H](C)[C@H](CN(C)CC2CCCCC2)Oc2c(NC(=O)Nc3cccc4ccccc34)cccc2C1=O
Cc1ccc(S(=O)(=O)Nc2ccc3c(c2)C(=O)N([C@H](C)CO)C[C@@H](C)[C@@H](CN(C)S(=O)(=O)c2ccc(F)cc2)OCCCC[C@@H](C)O3)cc1
COCCOC(=O)N1C(=O)[C@@]2(c3cc(C#CCC(C(=O)OC)C(=O)OC)ccc31)[C@H](C(=O)N1CCCCCCC1)[C@H]1C(=O)O[C@H](c3ccccc3)[C@H](c3ccccc3)N1[C@@H]2c1ccc(OCCO)cc1
NNC(=O)CNc1ccc2c(c1)OCO2
C[C@@H]1CCCCO[C@@H](CN(C)S(=O)(=O)c2ccc(F)cc2)[C@@H](C)CN([C@@H](C)CO)C(=O)c2cc(NC(=O)CCC(F)(F)F)ccc2O1
C[C@H](CO)N1C[C@H](C)[C@H](CN(C)S(=O)(=O)c2cn(C)cn2)Oc2cc(C3=CCCC3)ccc2S1(=O)=O
